Reference: PMC11995724, “Antibiotic target discovery by integrated phenotypic and activity-based profiling of electrophilic fragments” (Cell chemical biology, 2025)
The whole screen tested about 3,200 compounds, of which about 75 (2%) showed an effect of 50% or more. The list shows a part of the results.

system: T1, S. aureus MSSA476; design: species or system S. aureus MSSA476 (TSB) or V. cholerae SAD30 (LB); 384-well bacterial growth screen at 25 uM, OD600 relative to DMSO control; conditions: relative growth, OD600, TSB; 25 µM; inhibitor
T1 construct: MSSA476

SMILES | % of control remaining [%]
Cc1n[nH]c(C)c1C=C(C#N)C(=O)Nc1cc(Cl)cc(Cl)c1 [8-M08, 2-cyano-N-(3,5-dichlorophenyl)-3-(3,5-dimethyl-1H-pyrazol-4-yl)prop-2-enamide] | 72.3651
Cc1cccc(Cc2cnc(NC(=O)C(C)Cl)s2)c1 (stereo not drawn) [4-D19, 2-chloro-N-{5-[(3-methylphenyl)methyl]-1,3-thiazol-2-yl}propanamide] | 94.5212
N#CC(=Cc1ccc(OC(F)F)cc1)C(=O)NC1CCCCC1 [9-A04, 2-cyano-N-cyclohexyl-3-[4-(difluoromethoxy)phenyl]prop-2-enamide] | 56.3296
C=CC(=O)NCc1nnnn1-c1ccc(F)cc1 [1-M22, N-{[1-(4-fluorophenyl)-1H-1,2,3,4-tetrazol-5-yl]methyl}prop-2-enamide] | 121.319
C=CC(=O)N1CCC(C(=O)N2CCC(CC(=O)N(C)C)CC2)CC1 [2-H09, N,N-dimethyl-2-{1-[1-(prop-2-enoyl)piperidine-4-carbonyl]piperidin-4-yl}acetamide] | 95.7354
O=C(CCl)c1c[nH]c2ccc(F)cc12 [10-O11, 2-chloro-1-(5-fluoro-1H-indol-3-yl)ethan-1-one] | 120.625
C=CC(=O)NCc1ccc(C(=O)N2CCN(C(C)=O)CC2)cc1 [3-G17, N-{[4-(4-acetylpiperazine-1-carbonyl)phenyl]methyl}prop-2-enamide] | 113.888
CC(C1CC1)N(Cc1ccccc1)C(=O)CCl (stereo not drawn) [5-F09, N-benzyl-2-chloro-N-(1-cyclopropylethyl)acetamide] | 110.383
O=C(CCl)C1CC1(Cl)Cl (stereo not drawn) [10-K09, 2-chloro-1-(2,2-dichlorocyclopropyl)ethan-1-one] | 114.687
C=CC(=O)NC1CCc2ccccc21 (stereo not drawn) [1-A14, N-(2,3-dihydro-1H-inden-1-yl)prop-2-enamide] | 127.297
Cc1nn(CCC(=O)N2CCSSCC2)c(C)c1[N+](=O)[O-] [10-J05, 3-(3,5-dimethyl-4-nitro-1H-pyrazol-1-yl)-1-(1,2,5-dithiazepan-5-yl)propan-1-one] | 96.5625
CC(Cl)C(=O)NCC1CN(c2nncs2)CCO1 (stereo not drawn) [7-O03, 2-chloro-N-{[4-(1,3,4-thiadiazol-2-yl)morpholin-2-yl]methyl}propanamide] | 123.391
CC(C)C(NC(=O)CCl)c1ccc(F)c(C#N)c1 (stereo not drawn) [6-I19, 2-chloro-N-[1-(3-cyano-4-fluorophenyl)-2-methylpropyl]acetamide] | 108.927
CCOc1ccc(NC(=O)C(C#N)=Cc2ccc(F)cc2)cc1 [8-N07, 2-cyano-N-(4-ethoxyphenyl)-3-(4-fluorophenyl)prop-2-enamide] | 113.527
Cc1nc(C(NC(=O)CCl)c2ccccc2)no1 (stereo not drawn) [7-F08, 2-chloro-N-[(5-methyl-1,2,4-oxadiazol-3-yl)(phenyl)methyl]acetamide] | 108.32
CC(Cl)C(=O)NCc1cccs1 (stereo not drawn) [4-P11, 2-chloro-N-[(thiophen-2-yl)methyl]propanamide] | 104.812
C=CC(=O)NCCC1CCCS1(=O)=O (stereo not drawn) [3-C12, N-[2-(1,1-dioxo-1lambda6-thiolan-2-yl)ethyl]prop-2-enamide] | 115.281
COc1cc(C=C(C#N)C(=O)NC(C)C)sn1 [9-N12, 2-cyano-3-(3-methoxy-1,2-thiazol-5-yl)-N-(propan-2-yl)prop-2-enamide] | 119.85
C=CC(=O)N1CCN(Cc2ccon2)CC1 [1-N20, 1-{4-[(1,2-oxazol-3-yl)methyl]piperazin-1-yl}prop-2-en-1-one] | 112.176
C=CC(=O)N1CCC(C(=O)NCC(C)(C)C=C)CC1 [2-G04, N-(2,2-dimethylbut-3-en-1-yl)-1-(prop-2-enoyl)piperidine-4-carboxamide] | 95.0392
CC(Cl)C(=O)NCC1CN(c2ccc(Cl)cc2)CCO1 (stereo not drawn) [6-F07, 2-chloro-N-{[4-(4-chlorophenyl)morpholin-2-yl]methyl}propanamide] | 89.8049
CC1CCCN(C(=O)C(NC(=O)CCl)c2cnn(C)c2)C1 (stereo not drawn) [6-H05, 2-chloro-N-[1-(1-methyl-1H-pyrazol-4-yl)-2-(3-methylpiperidin-1-yl)-2-oxoethyl]acetamide] | 93.2195
Cc1cc(C)cc(-n2c(C)cc(C(=O)CCl)c2C)c1 [10-E04, 2-chloro-1-[1-(3,5-dimethylphenyl)-2,5-dimethyl-1H-pyrrol-3-yl]ethan-1-one] | 128.438

SMILES | % of control remaining [%]
N#CC(=Cc1ccc(O)cc1)C(=O)NCCc1c(F)cccc1F [9-I16, 2-cyano-N-[2-(2,6-difluorophenyl)ethyl]-3-(4-hydroxyphenyl)prop-2-enamide] | 116.854
O=C(CCl)N(Cc1ccccc1)c1nc2c(s1)CCCC2 [4-C17, N-benzyl-2-chloro-N-(4,5,6,7-tetrahydro-1,3-benzothiazol-2-yl)acetamide] | 138.352
CC(Cl)C(=O)N(C)Cc1cc(C(C)(C)C)[nH]n1 (stereo not drawn) [7-B21, N-[(5-tert-butyl-1H-pyrazol-3-yl)methyl]-2-chloro-N-methylpropanamide] | 99.529
Cc1ccsc1C=C(C#N)C(=O)N1CCN(c2ccccc2)CC1 [8-B13, 3-(3-methylthiophen-2-yl)-2-(4-phenylpiperazine-1-carbonyl)prop-2-enenitrile] | 114.855
C=CC(=O)NCCc1nc(C)no1 [3-N19, N-[2-(3-methyl-1,2,4-oxadiazol-5-yl)ethyl]prop-2-enamide] | 119.112
CCn1ccc(CN(C)C(=O)CCl)n1 [5-K06, 2-chloro-N-[(1-ethyl-1H-pyrazol-3-yl)methyl]-N-methylacetamide] | 77.5956
COc1ccc(Cl)cc1NC(=O)C(C)Cl (stereo not drawn) [6-G16, 2-chloro-N-(5-chloro-2-methoxyphenyl)propanamide] | 98.6829
COc1ccc2cc(C=C(C#N)C(=O)NCc3ccccc3)ccc2c1 [9-D07, N-benzyl-2-cyano-3-(6-methoxynaphthalen-2-yl)prop-2-enamide] | 106.367
CCn1cc(CN(C(=O)CCl)[C@H]2CC[C@H](C)CC2)cn1 [5-G16, 2-chloro-N-[(1-ethyl-1H-pyrazol-4-yl)methyl]-N-[(1r,4r)-4-methylcyclohexyl]acetamide] | 96.5392
C=CC(=O)NCCc1csc(C)n1 [1-D13, N-[2-(2-methyl-1,3-thiazol-4-yl)ethyl]prop-2-enamide] | 90.022
C=CC(=O)Nc1cccc(-c2nnnn2C(C)C)c1 [1-A16, N-{3-[1-(propan-2-yl)-1H-1,2,3,4-tetrazol-5-yl]phenyl}prop-2-enamide] | 104.44
CC(Cl)C(=O)N(C)C1CCN(c2ccccc2Cl)C1=O (stereo not drawn) [7-C16, 2-chloro-N-[1-(2-chlorophenyl)-2-oxopyrrolidin-3-yl]-N-methylpropanamide] | 120.879
CC(Cl)C(=O)NC1CCCc2c1cnn2Cc1ccccc1 (stereo not drawn) [7-G13, N-(1-benzyl-4,5,6,7-tetrahydro-1H-indazol-4-yl)-2-chloropropanamide] | 81.0047
COC(=O)c1c(NC(=O)CCl)sc2c1CCC(C(C)(C)C)C2 (stereo not drawn) [4-J19, methyl 6-tert-butyl-2-(2-chloroacetamido)-4,5,6,7-tetrahydro-1-benzothiophene-3-carboxylate] | 117.77
C=CC(=O)N1CCS(=O)(=O)N2CCCC12 (stereo not drawn) [3-H18, 1-(prop-2-enoyl)-hexahydro-1H-4lambda6-pyrrolo[1,2-b][1,2,4]thiadiazine-4,4-dione] | 121.898
Cc1cc(C(=O)CCl)c(C)n1CC(N)=O [10-O16, 2-[3-(2-chloroacetyl)-2,5-dimethyl-1H-pyrrol-1-yl]acetamide] | 129.688
C=CC(=O)NC1CCOC1C (stereo not drawn) [1-F06, N-(2-methyloxolan-3-yl)prop-2-enamide] | 89.6703
Cc1ccc(C=C(C#N)C(=O)Nc2ccc(C(=O)N(C)C)cc2)o1 [9-P14, 4-[2-cyano-3-(5-methylfuran-2-yl)prop-2-enamido]-N,N-dimethylbenzamide] | 101.573
Cc1cccc(C)c1NC(=O)C(C#N)=Cc1ccsc1 [8-I07, 2-cyano-N-(2,6-dimethylphenyl)-3-(thiophen-3-yl)prop-2-enamide] | 121.494
Cc1nsc(N2CCN(C(=O)C(C)Cl)CC2)c1C#N (stereo not drawn) [6-H15, 5-[4-(2-chloropropanoyl)piperazin-1-yl]-3-methyl-1,2-thiazole-4-carbonitrile] | 103.122
COc1cc(C=C(C#N)C(=O)Nc2cccc(C)c2)c2c(c1)CC(C)O2 (stereo not drawn) [8-N22, 2-cyano-3-(5-methoxy-2-methyl-2,3-dihydro-1-benzofuran-7-yl)-N-(3-methylphenyl)prop-2-enamide] | 121.162
Cc1cc(C)c(NC(=O)C(C#N)=Cc2ccc(C(C)(C)C)cc2)c(C)c1 [8-I13, 3-(4-tert-butylphenyl)-2-cyano-N-(2,4,6-trimethylphenyl)prop-2-enamide] | 90.9544
